Reference: PubChem BioAssay AID624418 (National Center for Advancing Translational Sciences (NCATS), 2012)
Screen size: about 410,000 compounds; about 530 (0.13%) were called active. The shares of active, inactive and inconclusive entries below differ from those in the screen. The call rests on the fitted dose curve; in most records, active means well fitted inhibition curve with a large enough effect; inconclusive means small, poorly fitted or top-dose-only effect, or another doubt; inactive means no such curve, though single readings can be large or run the other way. A potency beside an inconclusive call is a rough fit, not a confirmed value.

Assay: qHTS of GLP-1 Receptor Inverse Agonists: Cytotox Screen
Conditions: HEK293 cAMP-luciferase reporter cells, luminescence, 24 h; activity change, negative = inhibition: at 38.3 µM (top of the series) unless noted
In short: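 MLSMR compounds, 24 hr on cells at 37 deg C/5% CO2; luminescence after luciferase reagent (12 min RT). Inhibition counted as the undesired cytotoxic outcome.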
On the % scale 0 is the no-effect control and ±100 the full control effect; potency means the concentration at half of the fitted maximal effect.

| SMILES | activity change, negative = inhibition | Potency |
| --- | --- | --- |
| Clc1ccc(CSc2nnc(-c3ccncc3)s2)cc1 | inactive: -9.16% | – |
| Cc1cc(C)cc(NC(=S)Nc2ccc(Cl)c(Cl)c2)c1 | – | inconclusive: 11.2 µM [inhibitor, single point] |
| CC(OC(=O)c1cc(S(=O)(=O)N2CCOCC2)ccc1F)C(=O)NCC1CCCCC1 (configuration not stated) | inactive: 5.95% | – |
| CCOC(=O)c1c(NC(=O)c2ccoc2C)sc2c1CCC2 | inactive: -5.62% | – |
| O=C(Nc1cccnc1)c1ccc2nc(-c3ccccc3)c(-c3ccccc3)nc2c1 | inactive: -16.1% | – |
| O=CN1CCN(C(=S)NC(=O)c2ccc(Cl)cc2)CC1 | – | inconclusive: 12.6 µM [inhibitor, single point] |
| CCCN1CCC(=O)N(CCOc2ccccc2)CC1 | inactive: 3.75% | – |
| CCC(C)NC(=O)CSC1=Nc2ccccc2C2=NC(c3ccccc3)C(=O)N12 (configuration not stated) | inactive: -10.7% | – |
| CC(C)CCN(Cc1ccco1)C(=O)c1cc2c(s1)-c1ccccc1OC2 | inactive: 2.48% | – |
| C[C@H](NC(=O)c1nc[nH]c1C(=O)NCc1ccc(CNC(=O)OC(C)(C)C)cc1)c1ccccc1 | – | inconclusive: 5.62 µM [inhibitor, full curve, poor fit] |
| COc1ccc(N2CCC(CNC(=S)Nc3cc(C)ccc3C)C2)cc1 (configuration not stated) | – | inconclusive: 10 µM [inhibitor, single point] |
| O=C1CC(C(=O)Nc2ccc(C(=O)O)cc2)C(c2ccccc2)O1 (configuration not stated) | inactive: -5.37% | – |
| CCOc1ccc(OCC)c(NC(=O)CN2CCN(c3cccc(C)c3)CC2)c1 | inactive: 7.93% | – |
| CC(C)CNC(=S)N1CCC(C(=O)c2ccc(Cl)cc2)CC1 | inactive: -6.46% | – |
| S=C(NCc1ccccc1)NCc1cccc(CNC(=S)NCc2ccccc2)c1 | inactive: -31.9% | – |
| CN(CC(=O)NC1CCCCCCC1)S(=O)(=O)c1cccc2cccnc12 | – | inconclusive: 2.24 µM [inhibitor, partial curve, poor fit] |
| Cc1cc(=O)[nH]c(N/N=C/c2ccccn2)n1 | – | inconclusive: 31.6 µM [inhibitor, single point] |
| NC(=S)NNC(=O)c1ccccc1 | – | inconclusive: 31.6 µM [inhibitor, single point] |
| C/C(=N\NC(=S)NCc1ccccc1)c1ccccc1 | – | inconclusive: 3.16 µM [inhibitor, full curve] |
| COc1ccc(C(=O)NC2CCCc3ccccc32)cc1[N+](=O)[O-] (configuration not stated) | – | inconclusive: 12.6 µM [inhibitor, single point] |
| Cc1ccccc1-c1nc(CN2CCC(C(=O)NCCCN3CCCC3)CC2)c(C)o1 | – | inconclusive: 28.2 µM [inhibitor, single point] |
| CC1CC(C)CN(CCOCCSc2ccccc2)C1 (configuration not stated) | – | inconclusive: 11.2 µM [inhibitor, single point] |
| O=[N+]([O-])c1cccc(/C=C/c2nc3ccc([N+](=O)[O-])cc3[nH]2)c1 | – | inconclusive: 10 µM [inhibitor, partial curve, poor fit] |
| C=CCOc1ccc(/C=C2\SC(=S)N(NS(=O)(=O)c3ccccc3)C2=O)cc1 | – | inconclusive: 11.2 µM [inhibitor, single point] |

| SMILES | activity change, negative = inhibition | Potency |
| --- | --- | --- |
| N=c1n(Cc2ccccc2)c2ccccc2n1CC(O)COc1ccc(Cl)cc1Cl (configuration not stated) | – | inconclusive: 12.6 µM [inhibitor, single point] |
| CN(C)c1nc(NN)nc(Nc2ccc(F)cc2)n1 | inconclusive: -57.2% [inhibitor] | – |
| Cc1ccc(F)c(NC(=O)/C(C#N)=C(\O)c2ccc(C(C)(C)C)cc2)c1 | – | inconclusive: 12.6 µM [inhibitor, single point] |
| CC(N=C(NC#N)Nc1ccncc1)C(C)(C)C (configuration not stated) | – | inconclusive: 14.1 µM [inhibitor, single point] |
| COC(=O)C1=C(C)NC(=O)/C1=C\c1cc(C)n(-c2cc(C)cc(C)c2)c1C | – | inconclusive: 8.91 µM [inhibitor, partial curve] |
| CC1CCCC(C)N1C(=O)COC(=O)c1ccc(Br)c(S(=O)(=O)N2CCOCC2)c1 (configuration not stated) | – | inconclusive: 11.2 µM [inhibitor, single point] |
| CC(=O)Nc1ccc(/C(N=Nc2ccccc2)=N/N=C(N)N)cc1 | – | inconclusive: 28.2 µM [inhibitor, single point] |
| Cc1ccccc1C(=O)Nc1nnc(-c2ccncc2)o1 | inactive: 1.64% [at 7.66 µM] | – |
| S=C(NCC1CCCO1)NC1CCCC1 (configuration not stated) | inactive: -0.753% | – |
| COCCCN1C(=O)c2[nH]nc(-c3ccccc3O)c2C1c1cccc(Cl)c1 (configuration not stated) | – | inconclusive: 5.01 µM [inhibitor, full curve, poor fit] |
| Cc1ccc(-c2nc(N=Nc3ccc(O)cc3)n[nH]2)cc1 | – | inconclusive: 11.2 µM [inhibitor, single point] |
| COc1cc(OC)cc(C(=O)Nc2cc3c(cc2N2CCCC2)n(C)c(=O)c(=O)n3C)c1 | inactive: 2.93% | – |
| C/C(=N/NC(=O)CNC(=O)CCc1ccccc1)c1ccc(Cl)cc1 | – | inconclusive: 28.2 µM [inhibitor, single point] |
| CCN(CC)CCOC(=O)c1c(C)oc2ccc(OC)cc12 | – | inconclusive: 31.6 µM [inhibitor, single point] |
| CNCc1ccccc1Sc1cc(O)ccc1O | – | inconclusive: 22.4 µM [inhibitor, single point] |
| CC1CCCCN1C(=S)NC(=O)c1ccccc1 (configuration not stated) | – | active: 11.2 µM |
| Cc1ccc(Cn2nc(C)cc2C(=O)Nc2ccc(Cl)cc2)cc1 | inactive: 0% | – |
| CCCCn1c(SCC(=O)Nc2cc(NC(=O)c3ccco3)ccc2C)nc2ccccc2c1=O | – | inconclusive: 14.1 µM [inhibitor, single point] |
| Cc1ccc(N=Cc2sc(O)c3ccccc23)c(C)c1 | inactive: -13.5% | – |
| c1ccc(OCc2nn3c(-c4ccncc4)nnc3s2)cc1 | inactive: 4.23% | – |
| COc1ccccc1CNC(=O)Cc1csc(NC(=O)Nc2ccccc2OC)n1 | – | inconclusive: 20 µM [inhibitor, single point] |
| CCn1c(-c2ccccc2)c[nH]c1=S | inactive: -24.1% | – |
| OC(c1ccc(OCc2ccccc2)cc1)c1nnc(-c2ccccc2)o1 (configuration not stated) | inactive: -16% | – |
| O=C(Nc1ccc(Oc2ccccc2)cc1)C1CCN(S(=O)(=O)c2ccc(Cl)cc2)CC1 | inactive: -15.9% | – |

| SMILES | activity change, negative = inhibition | Potency |
| --- | --- | --- |
| CC(C)c1ccccc1NC(=S)NCc1ccccc1F | – | inconclusive: 10 µM [inhibitor, single point] |
| N#Cc1c(Cl)nsc1NC(=O)c1ccccc1 | inactive: -19% | – |
| O=S(=O)(c1ccc(Cl)cc1)c1nc(-c2ccco2)oc1SCc1ccc(F)cc1 | inactive: 23.5% | – |
| Cc1ccc(S(=O)(=O)CNC(=S)c2cccc(Cl)c2)cc1 | – | inconclusive: 12.6 µM [inhibitor, partial curve, poor fit] |
| O=C1NC[C@H](Cc2ccccc2)N(C[C@@H]2CCCN2C[C@H](Cc2ccccc2)N2C[C@H](Cc3ccccc3)N(CCc3ccccc3)C(=O)C2=O)C1=O | – | inconclusive: 20 µM [inhibitor, single point] |
| CCOC(=O)c1ccc(NC(=O)CSc2ccc3ccccc3n2)cc1 | inactive: 1.92% | – |
| Fc1ccccc1/C=N/n1c(COc2ccccc2)n[nH]c1=S | inconclusive: -45.1% [inhibitor] | – |
| Cc1cc(C(=O)COC(=O)c2ccccc2NCCO)c(C)n1CC1CCCO1 (configuration not stated) | – | inconclusive: 0.501 µM [inhibitor, full curve, poor fit] |
| CN(C)CCNC(=O)C1CCN(Cc2cc3ccccc3n2Cc2ccccc2)CC1 | – | inconclusive: 28.2 µM [inhibitor, single point] |
| CC1CCN(C(=O)CNC(=O)CNC(=O)Cc2ccccc2)CC1 | inactive: 4.24% | – |
| Cc1ccc([N+](=O)[O-])c(OCCN2CCC(Cc3ccccc3)CC2)c1 | – | inconclusive: 11.2 µM [inhibitor, single point] |
| CC1Cc2ccccc2N1C(=O)c1ccc(N2CCCC2)c([N+](=O)[O-])c1 (configuration not stated) | – | inconclusive: 8.91 µM [inhibitor, partial curve] |
| O=C(NCC(O)COc1ccc([N+](=O)[O-])cc1)Nc1ccccc1 (configuration not stated) | – | inconclusive: 28.2 µM [inhibitor, single point] |
| CC(C)C[C@@H](CN1CCC[C@@H]1CN1C(=S)NC[C@@H]1Cc1ccc(O)cc1)N1C[C@H](Cc2ccccc2)N(CCc2ccccc2)C1=S | inactive: 1.45% | – |
| Cc1ccc(C)c(NC(=S)NCc2ccc3[nH]c4c(c3c2)CCCC4)c1 | – | inconclusive: 11.2 µM [inhibitor, single point] |
| Cc1cc(C)cc(-n2c(C)cc(C(=S)N3CCOCC3)c2C)c1 | – | inconclusive: 28.2 µM [inhibitor, single point] |
| CCn1c(-c2cc(-c3ccccc3)sc2N)n[nH]c1=S | – | inconclusive: 14.1 µM [inhibitor, partial curve, poor fit] |
| O=C(Cn1nc(C(F)(F)F)c2c1CCCC2)Nc1ccc(Br)cc1 | inactive: 3.62% | – |
| O=C(CN1C(=O)/C(=C\c2ccco2)SC1=S)Nc1ccc(O)cc1C(=O)O | – | inconclusive: 10 µM [inhibitor, partial curve, poor fit] |
| Cc1ccc(N2CCN(S(=O)(=O)c3cccc4ccccc34)CC2)cc1Cl | inactive: 1.82% | – |
| N#Cc1c(-c2ccc(Cl)cc2)c(-c2ccc(Cl)cc2)nn(CCOC(=O)CCC(=O)O)c1=O | – | inconclusive: 1.26 µM [inhibitor, full curve, poor fit] |
| CC1(C)CC(=O)C2=C(C1)OC1=C(C(=O)CC(C)(C)C1)C2c1cc([N+](=O)[O-])cc([N+](=O)[O-])c1O | – | inconclusive: 10 µM [inhibitor, single point] |
| CCOC(=O)CSc1nc2c(c(=O)n1-c1ccc(OCC)cc1)SCC2 | – | inconclusive: 0.501 µM [inhibitor, full curve, poor fit] |
| CC(=O)c1c(C)[nH]c(C(=O)Nc2cc(C)cc(C)c2)c1C | inactive: 6.81% | – |
